# In all, about 2,300 sequences were measured (“median log2 fold change of GCK-ALFA target abundance (FLAG IP / Myc IP barcode read proportion)”: median about 0.095, lowest 2% from about -0.47 on). Some of the results follow.
# B1: LC3A_128_227 (protein)
# chain: MEKLEEALKNLKRALEDLEKIAKTEEAKKLLKEAKKLLKEIEKLLKEGAPLEEIKKKLKEALKVAKELIKLLKEKGVEDTTLLNAAEIDLANAEEELDEI
# B2: LC3A_3_1528 (protein)
# chain: FEEIREEVIRLLKEAGADEETIEKAEEALDILEERGYEKAAKVFLEEVKRLAGISPETLAEFVEEVLELLKTKDLDEETLSKEIKEIARTAESAAEIEEL
# B3: LC3A_free_8_2441 (protein)
# chain: SNQELVDAALKLLDELEEEIEKKAKELGLDETDIGLLLLEVGSAISEVISLSDASPEEILKATKEDLEEIIKLAEEINKELAKIVKEKAEKILKELEKLL
# B4: LC3A_28_802 (protein)
# chain: SATRESADAARAEAVRKIAAGEEVVVTIEVAEDATQEDIDYVAETIREMARLAKEAGIPKLYVVVDSPDNQEIIDAISKTEDEMRKEGLPVDVIIAIEEP
# B5: LC3A_28_649 (protein)
# chain: MSIEEQLEEALERAREARERGEPAVITLTVDGSATQEDIEKIIETMEEIAEILADIPGSAIIIDVTGGVPQEFIDKLAEKGEEIEKKYPNVTVILALDEE
# B6: LC3A_3_1557 (protein)
# chain: MEEIREETLEELREAGKSEEVLEAARRAFDALIERGYEEALKTLAEETRKLINLPDELLLDFFEEVLETIETEDLNEEELIEKIKEIARTTLNESEIIEL
# B7: LC3A_16_525 (protein)
# chain: PAELEAQLAWLQALYAALETSLDAALALARQHDPALAAKIEAAKADPSKLAEVYKAIAAAAKALAAQFKAAGKEELAATAQNIADAAETDAELAELRNEE
# B8: LC3A_28_931 (protein)
# chain: MTVEEIKAAIRATADAAIAAGEDALIEVEIGPDTTVEEAKEIMDVLEEEAARLAAAGLKVDVVIDLDDVSQEVLDTIMERADAIEAAYPRVNVIIALDEK
# B9: LC3A_3_1803 (protein)
# chain: MEEKLEELLKLLREAGKSEETIEAVREALELLIERGYEEAFETFIEEMRKLVDLPDELLLDLAERVLEYLKTNDASEEEVKEFIKEEARLTRLEGEIIEL
# B10: LC3A_3_1349 (protein)
# chain: MEELIEELVERLREAGFSEEVVEAARRLLEALAELGHEEAMERVVEVLLEHKDAPEELIVEALEAATREVEENPDLTEEEVEELVKLLEAELEIEPLDEE
# B11: LC3A_3_1821 (protein)
# chain: MEEEIEETLRLLREAGWSEEALEAVRAAVEALLERGYEEAARTLIELMRRLRDLPSERILALARDVLELIETSDDSEEEMRERIVEIARTHEHEAEIIEL
# B12: LC3A_free_46_2421 (protein)
# chain: MTLEIDIDFIAKTKETAEAVSEEIVELLKELAEKHGVEVEIEVDIEKLEDGTYYVDIDATITGVTEEQAKQIEDEITSKVEEIFEKYPEVLGALISSELK
# B13: LC3A_28_1209 (protein)
# chain: SAAEAAIAALRAQVDAAIAAGEPETIVVTIPATVTVEEARAIMAAVEEEAARASGIPGTAIVVDLEEGVSEEVRRVVGERADAIEARYPNVTVIIALAEE
# B14: LC3A_45_1934 (protein)
# chain: MYLATVDILVPKELAEEALELVKEKGEELEEKYGDKVEVDFETLEKSYEATKNEEEVYLEVNIYADDKQTALDAADELVDYLEERLNGQVSAIISIEELP
# B15: LC3A_28_922 (protein)
# chain: MTKEEIIKKIREIAEEAIEKGEDAFIEVEIDSSHTKEEAEEIMDEIEREVKRLSEAGLKVDILITLDNVSQEVLDVVTDRAEEIEEKYPNVNVVIALDEE
# B16: LC3A_free_39_2213 (protein)
# chain: SEEELEELLKKVAEESGLDYEYIKKKIEEIQKVAGLSLEQMKKIVEAILEAVKEGANAEEILERILALAKELKAAGKSPEEIAKALLEEVEDYRNLIPLD
# B17: LC3A_free_46_2333 (protein)
# chain: TLVEVEVEVLAENRETLEAFAADTEARIKERFAAAGIDAEVEVELEWAEDGKTALLKVKVTIKDPNADPQEVANMVVDAIDESAEKHGLSYIISIDIKEL
# B18: LC3A_3_1433 (protein)
# chain: SEELLEEAERVLEEAGFSPEARAAVLELVRLALEAGAEEEVRELIEVLKKAKNVPSERVLEAAEEALRRIREEGVPVEEAVREFIEELRVLELEEEIEEL
# B19: LC3A_free_39_2257 (protein)
# chain: AEEEREEALRRLRELAAKASPEVEAAVLRLAELLADDVEALRRLRELLERALEKGPEAVAILGQFAAEAVARIEAGEDRRAAFEELAKLAEAAIEIEEID
# Molecular target: MAP1LC3A, Q9H492
# Assay: median log2 fold change of GCK-ALFA target abundance (FLAG IP / Myc IP barcode read proportion) (log2 ratio); each designed protein is fused to an ALFA-tag nanobody in HEK293 cells to bring the named protein to FLAG-tagged glucokinase (GCK); Myc marks an untargeted standard; higher = target protein stabilised (more abundant)
# Settings: target protein: 3xFLAG-MCP-GCK-ALFA reporter; HEK293 landing pad (RPLP)
# Summary of the method: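 Binders fused to an ALFA nanobody were recombined as a library into HEK293 landing-pad cells, which were induced with 2 μg mL^−1 doxycycline and then transfected to express a FLAG-tagged target and a Myc-tagged standard. After 48 h, circular RNA barcodes recovered by anti-FLAG and anti-Myc immunoprecipitation of lysates were reverse transcribed, amplified and sequenced. Each binder's target abundance is the median log2 ratio of FLAG to Myc barcode read proportions, from barcodes present at ≥10^−7 in both replicates, binders carrying ≥3 barcodes per replicate, a 10^−6 pseudocount and pooled replicates.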
row,Binder,median log2 fold change
1,B1,0.392
2,B2,0.204
3,B3,0.0457
4,B4,-0.127
5,B5,0.212
6,B6,0.107
7,B7,0.204
8,B8,-0.315
9,B9,0.0289
10,B10,0.208
11,B11,0.262
12,B12,-0.00898
13,B13,0.194
14,B14,-0.402
15,B15,0.0501
16,B16,0.203
17,B17,0.0994
18,B18,0.251
19,B19,0.194

# From the supplement of paper PMC12632987
